# Not every detail of the peptide structures is certain; ends, links or a residue may be inferred. *1 amine or outer side, *2 acyl side, *3 side chain or, on linkers, in order; H or OH if unused. Where a SMILES comes first, the peptide text is derived from it. Bridges are numbered along the chain shown (N, C = ends). [ ]: non-standard residue; d: D form. TATA = O=C(CC[*:1])N1CN(C(=O)CC[*:2])CN(C(=O)CC[*:3])C1; 1Nal = N[C@@H](Cc1cccc2ccccc12)C(=O)O; Cya = N[C@@H](CS(=O)(=O)O)C(=O)O; Hyp = O=C(O)[C@@H]1C[C@@H](O)CN1; dCya = N[C@H](CS(=O)(=O)O)C(=O)O; hArg = N=C(N)NCCCC[C@H](N)C(=O)O; βAla = NCCC(=O)O; Sar = CNCC(=O)O
# Target: T1, human Nectin-4 (Homo sapiens, UniProt Q96NY8)
# T1 sequence (Q96NY8 32-510): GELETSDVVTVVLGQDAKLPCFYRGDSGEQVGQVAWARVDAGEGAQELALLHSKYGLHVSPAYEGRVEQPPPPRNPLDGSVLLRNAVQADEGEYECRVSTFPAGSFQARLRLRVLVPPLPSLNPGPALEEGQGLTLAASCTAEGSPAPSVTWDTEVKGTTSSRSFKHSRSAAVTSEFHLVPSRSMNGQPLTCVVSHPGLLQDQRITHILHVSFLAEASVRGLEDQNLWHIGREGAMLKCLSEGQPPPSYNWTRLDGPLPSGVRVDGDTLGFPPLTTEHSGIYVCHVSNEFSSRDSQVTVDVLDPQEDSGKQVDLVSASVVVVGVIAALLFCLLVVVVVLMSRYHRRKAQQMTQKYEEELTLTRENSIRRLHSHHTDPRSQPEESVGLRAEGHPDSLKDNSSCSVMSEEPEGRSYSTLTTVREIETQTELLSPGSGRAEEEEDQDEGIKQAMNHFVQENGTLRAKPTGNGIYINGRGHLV
# Test: Nectin-4 competition binding assay (fluorescence polarisation)
# Conditions: competition with fluorescent peptide SEQ ID NO: 217
# Procedure, shortened: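 Serially diluted (1 in 2) peptides, max 5% DMSO, were mixed with human Nectin-4 and a fluorescent tracer peptide; FP read as in the direct binding assay. Ki from fitting mP values to a cubic competition equation using tracer concentration, tracer Kd and Nectin-4 concentration.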
row,SMILES,Ki [nM]
1,"CC[C@H](C)[C@@H]1NC(=O)[C@H](CCCNC(=N)N)NC(=O)[C@H](CC(N)=O)NC(=O)[C@@H]2CSCCC(=O)N3CN(CN(C3)C(=O)CCSC[C@H](NC(=O)[C@H](Cc3c[nH]c4ccccc34)NC(=O)[C@H](CCCCN)NC(=O)[C@H](CCC(N)=O)NC(C)=O)C(=O)N[C@@H](C)C(=O)N3CCC[C@H]3C(=O)N[C@@H](CC(C)C)C(=O)N[C@@H](CO)C(=O)N[C@@H](CC(=O)O)C(=O)N[C@@H](Cc3ccc(O)cc3)C(=O)N[C@@H](Cc3c[nH]c4ccccc34)C(=O)N2)C(=O)CCSC[C@@H](C(N)=O)NC1=O [BCY7392, [Ac]QKW-(SEQ ID NO: 34)] (Ac-QKWCAPLSDYWCNRIC-NH2; linker 4-12-16 via TATA; C-terminus assumed)",27.2

# Target: T2, human Nectin-4 (Homo sapiens, UniProt Q96NY8)
# T2 sequence (Q96NY8 32-349): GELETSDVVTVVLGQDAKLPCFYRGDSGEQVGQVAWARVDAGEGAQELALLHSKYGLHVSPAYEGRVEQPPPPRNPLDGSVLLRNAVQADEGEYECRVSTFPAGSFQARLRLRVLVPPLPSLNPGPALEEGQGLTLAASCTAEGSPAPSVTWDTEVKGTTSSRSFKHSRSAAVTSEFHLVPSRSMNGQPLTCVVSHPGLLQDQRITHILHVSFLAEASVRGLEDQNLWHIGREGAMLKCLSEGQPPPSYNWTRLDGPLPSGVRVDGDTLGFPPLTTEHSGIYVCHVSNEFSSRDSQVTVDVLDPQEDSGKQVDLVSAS
# Test: Nectin-4 Biacore SPR binding assay
# Conditions: read-out: Human SPR Kd; peptide ligands (Table 3)
row,SMILES,Kd [nM]
1,"CC[C@H](C)[C@@H]1NC(=O)[C@H](CCCNC(=N)N)NC(=O)[C@H](CC(N)=O)NC(=O)[C@@H]2CSCCC(=O)N3CN(CN(C3)C(=O)CCSC[C@H](NC(=O)[C@H](Cc3c[nH]c4ccccc34)NC(=O)[C@H](CCCCN)NC(=O)[C@H](CCC(N)=O)NC(C)=O)C(=O)N[C@@H](C)C(=O)N3CCC[C@H]3C(=O)N[C@@H](CC(C)C)C(=O)N[C@@H](CO)C(=O)N[C@@H](CC(=O)O)C(=O)N[C@@H](Cc3ccc(O)cc3)C(=O)N[C@@H](Cc3c[nH]c4ccccc34)C(=O)N2)C(=O)CCSC[C@@H](C(N)=O)NC1=O [BCY7392, [Ac]QKW-(SEQ ID NO: 34)] (Ac-QKWCAPLSDYWCNRIC-NH2; linker 4-12-16 via TATA; C-terminus assumed)",35.7
2,"CSCC[C@@H]1NC(=O)[C@@H]2CSCCC(=O)N3CN(CN(C3)C(=O)CCSC[C@H](N)C(=O)N3CCC[C@H]3C(=O)N[C@@H](Cc3cccc4ccccc34)C(=O)N[C@H](CC(=O)O)C(=O)N2)C(=O)CCSC[C@@H](C(N)=O)NC(=O)[C@H](Cc2c[nH]c3ccccc23)NC(=O)[C@@H]2C[C@@H](O)CN2C(=O)[C@@H]2CCCN2C(=O)[C@H]([C@@H](C)O)NC(=O)[C@H](CO)NC(=O)[C@H](Cc2c[nH]c3ccccc23)NC(=O)[C@H](CC(=O)O)NC(=O)[C@H](CCCCNC(=N)N)NC1=O [BCY8116, (SEQ ID NO: 169)]",0.372
3,"CSCC[C@@H]1NC(=O)[C@@H]2CSCCC(=O)N3CN(CN(C3)C(=O)CCSC[C@H](NC(C)=O)C(=O)N3CCC[C@H]3C(=O)N[C@@H](Cc3cccc4ccccc34)C(=O)N[C@H](CCCNC(=N)N)C(=O)N2)C(=O)CCSC[C@@H](C(N)=O)NC(=O)[C@H](Cc2c[nH]c3ccccc23)NC(=O)[C@@H]2C[C@@H](O)CN2C(=O)[C@@H]2CCCN2C(=O)[C@H]([C@@H](C)O)NC(=O)[C@H](CO)NC(=O)[C@H](Cc2c[nH]c3ccccc23)NC(=O)[C@H](CC(=O)O)NC(=O)[C@H](CCCCNC(=N)N)NC1=O [BCY8184, Ac-(SEQ ID NO: 189)]",0.56
4,"CSCC[C@@H]1NC(=O)[C@@H]2CSCCC(=O)N3CN(CN(C3)C(=O)CCSC[C@H](NC(=O)CN(C)C(=O)CN(C)C(=O)CN(C)C(=O)CN(C)C(=O)CN(C)C(=O)CN(C)C(=O)CN(C)C(=O)CN(C)C(=O)CN(C)C(=O)CN(C)C(=O)CCN)C(=O)N3CCC[C@H]3C(=O)N[C@@H](Cc3cccc4ccccc34)C(=O)N[C@H](CC(=O)O)C(=O)N2)C(=O)CCSC[C@@H](C(N)=O)NC(=O)[C@H](Cc2c[nH]c3ccccc23)NC(=O)[C@@H]2C[C@@H](O)CN2C(=O)[C@@H]2CCCN2C(=O)[C@H]([C@@H](C)O)NC(=O)[C@H](CO)NC(=O)[C@H](Cc2c[nH]c3ccccc23)NC(=O)[C@H](CC(=O)O)NC(=O)[C@H](CCCCN)NC1=O [BCY8238, [B-Ala][Sar10]-(SEQ ID NO: 212)] (H-[βAla][Sar][Sar][Sar][Sar][Sar][Sar][Sar][Sar][Sar][Sar]CP[1Nal][dD]CMKDWSTP[Hyp]WC-NH2; linker 12-16-26 via TATA; N-terminus and C-terminus assumed)",3.88
5,"CSCC[C@@H]1NC(=O)[C@@H]2CSCCC(=O)N3CN(CN(C3)C(=O)CCSC[C@H](NC(=O)CN(C)C(=O)CN(C)C(=O)CN(C)C(=O)CN(C)C(=O)CN(C)C(=O)CN(C)C(=O)CN(C)C(=O)CN(C)C(=O)CN(C)C(=O)CN(C)C(=O)CCNC(C)=O)C(=O)N3CCC[C@H]3C(=O)N[C@@H](Cc3cccc4ccccc34)C(=O)N[C@H](CS(=O)(=O)O)C(=O)N2)C(=O)CCSC[C@@H](C(N)=O)NC(=O)[C@H](Cc2c[nH]c3ccccc23)NC(=O)[C@@H]2C[C@@H](O)CN2C(=O)[C@@H]2CCCN2C(=O)[C@H]([C@@H](C)O)NC(=O)[C@H](CO)NC(=O)[C@H](Cc2c[nH]c3ccccc23)NC(=O)[C@H](CC(=O)O)NC(=O)[C@H](CCCCNC(=N)N)NC1=O [BCY8276, Ac-[B-Ala][Sar10]-(SEQ ID NO: 179)] (Ac-[βAla][Sar][Sar][Sar][Sar][Sar][Sar][Sar][Sar][Sar][Sar]CP[1Nal][dCya]CM[hArg]DWSTP[Hyp]WC-NH2; linker 12-16-26 via TATA; C-terminus assumed)",0.86
6,"CSCC[C@@H]1NC(=O)[C@@H]2CSCCC(=O)N3CN(CN(C3)C(=O)CCSC[C@H](NC(=O)CN(C)C(=O)CN(C)C(=O)CN(C)C(=O)CN(C)C(=O)CN(C)C(=O)CN(C)C(=O)CN(C)C(=O)CN(C)C(=O)CN(C)C(=O)CN(C)C(=O)CCNC(C)=O)C(=O)N3CCC[C@H]3C(=O)N[C@@H](Cc3cccc4ccccc34)C(=O)N[C@H](CC(=O)O)C(=O)N2)C(=O)CCSC[C@@H](C(N)=O)NC(=O)[C@H](Cc2c[nH]c3ccccc23)NC(=O)[C@@H]2C[C@@H](O)CN2C(=O)[C@@H]2CCCN2C(=O)[C@H]([C@@H](C)O)NC(=O)[C@H](CO)NC(=O)[C@H](Cc2c[nH]c3ccccc23)NC(=O)[C@H](CS(=O)(=O)O)NC(=O)[C@H](CCCCNC(=N)N)NC1=O [BCY8278, Ac-[B-Ala][Sar10]-(SEQ ID NO: 177)] (Ac-[βAla][Sar][Sar][Sar][Sar][Sar][Sar][Sar][Sar][Sar][Sar]CP[1Nal][dD]CM[hArg][Cya]WSTP[Hyp]WC-NH2; linker 12-16-26 via TATA)",1.92
7,"CSCC[C@@H]1NC(=O)[C@@H]2CSCCC(=O)N3CN(CN(C3)C(=O)CCSC[C@H](NC(=O)CN(C)C(=O)CN(C)C(=O)CN(C)C(=O)CN(C)C(=O)CN(C)C(=O)CN(C)C(=O)CN(C)C(=O)CN(C)C(=O)CN(C)C(=O)CN(C)C(=O)CCNC(C)=O)C(=O)N3CCC[C@H]3C(=O)N[C@@H](Cc3cccc4ccccc34)C(=O)N[C@H](CS(=O)(=O)O)C(=O)N2)C(=O)CCSC[C@@H](C(N)=O)NC(=O)[C@H](Cc2c[nH]c3ccccc23)NC(=O)[C@@H]2C[C@@H](O)CN2C(=O)[C@@H]2CCCN2C(=O)[C@H]([C@@H](C)O)NC(=O)[C@H](CO)NC(=O)[C@H](Cc2c[nH]c3ccccc23)NC(=O)[C@H](CC(=O)O)NC(=O)[C@H](CS(=O)(=O)O)NC1=O [BCY8279, Ac-[B-Ala][Sar10]-(SEQ ID NO: 208)] (Ac-[βAla][Sar][Sar][Sar][Sar][Sar][Sar][Sar][Sar][Sar][Sar]CP[1Nal][dCya]CM[Cya]DWSTP[Hyp]WC-NH2; linker 12-16-26 via TATA; C-terminus assumed)",3.31
8,"CSCC[C@@H]1NC(=O)[C@@H]2CSCCC(=O)N3CN(CN(C3)C(=O)CCSC[C@H](NC(=O)CN(C)C(=O)CN(C)C(=O)CN(C)C(=O)CN(C)C(=O)CN(C)C(=O)CN(C)C(=O)CN(C)C(=O)CN(C)C(=O)CN(C)C(=O)CN(C)C(=O)CCNC(C)=O)C(=O)N3CCC[C@H]3C(=O)N[C@@H](Cc3cccc4ccccc34)C(=O)N[C@H](CS(=O)(=O)O)C(=O)N2)C(=O)CCSC[C@@H](C(N)=O)NC(=O)[C@H](Cc2c[nH]c3ccccc23)NC(=O)[C@@H]2C[C@@H](O)CN2C(=O)[C@@H]2CCCN2C(=O)[C@H]([C@@H](C)O)NC(=O)[C@H](CO)NC(=O)[C@H](Cc2c[nH]c3ccccc23)NC(=O)[C@H](CS(=O)(=O)O)NC(=O)[C@H](CCCCNC(=N)N)NC1=O [BCY8280, Ac-[B-Ala][Sar10]-(SEQ ID NO: 209)] (Ac-[βAla][Sar][Sar][Sar][Sar][Sar][Sar][Sar][Sar][Sar][Sar]CP[1Nal][dCya]CM[hArg][Cya]WSTP[Hyp]WC-NH2; linker 12-16-26 via TATA; C-terminus assumed)",2
9,"CSCC[C@@H]1NC(=O)[C@@H]2CSCCC(=O)N3CN(CN(C3)C(=O)CCSC[C@H](NC(=O)CN(C)C(=O)CN(C)C(=O)CN(C)C(=O)CN(C)C(=O)CN(C)C(=O)CN(C)C(=O)CN(C)C(=O)CN(C)C(=O)CN(C)C(=O)CN(C)C(=O)CCNC(C)=O)C(=O)N3CCC[C@H]3C(=O)N[C@@H](Cc3cccc4ccccc34)C(=O)N[C@H](CC(=O)O)C(=O)N2)C(=O)CCSC[C@@H](C(N)=O)NC(=O)[C@H](Cc2c[nH]c3ccccc23)NC(=O)[C@@H]2C[C@@H](O)CN2C(=O)[C@@H]2CCCN2C(=O)[C@H]([C@@H](C)O)NC(=O)[C@H](CO)NC(=O)[C@H](Cc2c[nH]c3ccccc23)NC(=O)[C@H](CS(=O)(=O)O)NC(=O)[C@H](CS(=O)(=O)O)NC1=O [BCY8281, Ac-[B-Ala][Sar10]-(SEQ ID NO: 210)] (Ac-[βAla][Sar][Sar][Sar][Sar][Sar][Sar][Sar][Sar][Sar][Sar]CP[1Nal][dD]CM[Cya][Cya]WSTP[Hyp]WC-NH2; linker 12-16-26 via TATA; C-terminus assumed)",6.11
